# Data: the supplement of paper PMC9174493
# The other results are listed elsewhere or left out. Single values of this set are uncertain. Values with irradiation are relative to irradiated vehicle.
# How the values were obtained:
# A549-Dual [1] = experiment: NF-kB reporter (SEAP) activity, viability-corrected, relative to vehicle (fold change vs vehicle); higher = more activation of STING-IRF / NF-kB immune response reporter; settings: 10 µM
# A549-Dual [2] = experiment: ISRE reporter (Lucia luciferase) activity, viability-corrected, relative to vehicle (fold change vs vehicle); higher = more activation of STING-IRF / NF-kB immune response reporter; settings: 10 µM
# 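Wherever NF-kB reporter (SEAP) activity, viability-corrected, relative to vehicle is given: viability correction based on the alamar blue assay, with concentrations leaving 10% survival or less dropped.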
Compound,NF-kB reporter (A549-Dual [1]; irradiation: 8 Gy/4 fr),NF-kB reporter (A549-Dual [1]; irradiation: none),ISRE reporter (A549-Dual [2]; irradiation: 8 Gy/4 fr),ISRE reporter (A549-Dual [2]; irradiation: none)
COc1ccc(CC2c3cc(OC)c(OC)cc3CC[N+]2(C)CCC(=O)OCCCCCOC(=O)CC[N+]2(C)CCc3cc(OC)c(OC)cc3C2Cc2ccc(OC)c(OC)c2)cc1OC.O=S(=O)([O-])c1ccccc1.O=S(=O)([O-])c1ccccc1 (configuration not stated) [Cisatracurium Besylate],0.627,0.745,0.591,0.658
CC1(C)SC2C(NC(=O)C(N)c3ccccc3)C(=O)N2C1C(=O)OCOC(=O)C1N2C(=O)CC2S(=O)(=O)C1(C)C (configuration not stated) [Sultamicillin],0.647,0.861,0.598,0.627
CNCCCN1c2ccccc2CCc2ccccc21.Cl [Desipramine Hydrochloride],0.745,1.3,0.545,0.723
Cl.N/N=c1\[nH]ncc2ccccc12 [Hydralazine HCl],1.17,1.63,0.752,1.29
CCCCC(O)c1ccccc1 (configuration not stated) [Fenipentol],0.695,0.512,0.648,0.44
CNCCC(Oc1ccccc1C)c1ccccc1.Cl (configuration not stated) [Atomoxetine HCl],0.91,0.981,1.2,1.14
Cl.NC12CC3CC(CC(C3)C1)C2 [Amantadine HCl],0.801,1.04,0.932,0.937
"CCC(=O)Oc1ccc2c(c1)CCC1C2CCC2(C)C(OC(=O)CC)CCC12 (stereo not drawn) [17-Beta-Estradiol-3,17-Dipropionate]",0.462,0.591,0.457,0.528
Cl.O=C1c2cccc3c2C(CCC3)CN1C1CN2CCC1CC2 (configuration not stated) [Palonosetron HCl],0.462,0.713,0.487,0.86
CN/C(=C/[N+](=O)[O-])NCCSCc1csc(CN(C)C)n1 [Nizatidine],0.817,0.937,0.837,0.718
O=c1ccn(C2CC(O)C(CO)O2)c(=O)[nH]1 (configuration not stated) [2’-deoxyuridine],0.855,0.829,0.967,0.66
Cc1ncc(COP(=O)([O-])[O-])c(CN(CCN(CC(=O)O)Cc2c(COP(=O)([O-])O)cnc(C)c2O)CC(=O)O)c1O.[Mn].[Na+].[Na+].[Na+] [Mangafodipir Trisodium],0.467,0.484,0.597,0.663
Nc1nc(=O)n(C2CSC(CO)O2)cc1F (configuration not stated) [Emtricitabine],0.543,0.782,0.596,0.614
CCOc1ccc(CC(CN(CCN(CC(=O)[O-])CC(=O)[O-])CC(=O)[O-])N(CC(=O)[O-])CC(=O)[O-])cc1.[Gd+3].[Na+].[Na+] (configuration not stated) [Gadoxetate sodium],0.764,0.854,0.704,0.774
C=C1CC/C=C(\C)CCC2C1CC2(C)C (stereo not drawn) [β-Caryophyllene],1.22,0.751,1.3,0.853
CCN(Cc1ccncc1)C(=O)C(CO)c1ccccc1 (configuration not stated) [Tropicamide],0.829,0.699,0.88,0.658
CC12C=CC(=O)NC1CCC1C2CCC2(C)C(C(=O)Nc3cc(C(F)(F)F)ccc3C(F)(F)F)CCC12 (configuration not stated) [Dutasteride],0.584,0.79,0.645,0.864
CC1CCC2(OC1)OC1CC3C4CC=C5CC(O)CC(O)C5(C)C4CCC3(C)C1C2C (configuration not stated) [Ruscogenin],0.907,0.913,0.972,0.8
CO/N=C(\C(=O)N[C@@H]1C(=O)N2C(C(=O)[O-])=C(CSc3nc(C)c(CC(=O)[O-])s3)CS[C@H]12)c1csc(N)n1.[Na+].[Na+] [Cefodizime Sodium],0.892,0.935,0.854,0.689
CCCc1cc(=O)[nH]c(=S)[nH]1 [Propylthiouracil],0.494,1.39,0.0776,0.458
Cc1cn(C2CC(O)C(CO)O2)c(=O)[nH]c1=O (configuration not stated) [Thymidine],0.501,0.731,0.561,0.623
CC1(C(=O)O)CCC2(C)CCC3(C)C(=CC(=O)C4C5(C)CCC(O)C(C)(C)C5CCC43C)C2C1 (configuration not stated) [Glycyrrhetinic acid],0.637,0.572,0.653,0.682
Oc1ccc(C2COc3cc(O)ccc3C2)cc1 (racemic) [(±)-Equol],0.619,0.886,0.536,0.717
CC1OC(O)C(O)C(O)C1O.O [L-(+)-Rhamnose Monohydrate],0.921,0.488,0.894,0.516
CC(=O)OCC1=C(C(=O)[O-])N2C(=O)C(NC(=O)Cc3cccs3)C2SC1.[Na+] (configuration not stated) [Cephalothin],0.746,0.992,0.69,0.746
COC(=O)c1ccc(O)cc1 [Methyl 4-hydroxybenzoate],0.767,0.749,0.697,0.551
CCCSc1ccc2nc(NC(=O)OC)[nH]c2c1 [Albendazole],0.53,1.89,0.163,1.3

Compound,NF-kB reporter (A549-Dual [1]; irradiation: 8 Gy/4 fr),NF-kB reporter (A549-Dual [1]; irradiation: none),ISRE reporter (A549-Dual [2]; irradiation: 8 Gy/4 fr),ISRE reporter (A549-Dual [2]; irradiation: none)
NS(=O)(=O)c1cc2c(cc1Cl)NC(C(Cl)Cl)NS2(=O)=O (configuration not stated) [Trichlormethiazide],0.653,0.924,0.797,0.745
CCN(CC)CCOC(=O)c1ccc(N)cc1.Cl [Procaine HCl],0.942,1.1,0.982,1.06
CCCCOC(=O)c1ccc(O)cc1 [Butylparaben],0.793,1.04,0.643,0.745
COC(=O)C1=COC(OC2OC(CO)C(O)C(O)C2O)C2C1CC(O)C2C (configuration not stated) [Loganin],0.752,0.599,0.66,0.49
CCCCCCCC(=O)NC(CN1CCCC1)C(O)c1ccc2c(c1)OCCO2 (configuration not stated) [Eliglustat],1.34,0.743,1.9,1.19
CO/N=C(\C(=O)NC1C(=O)N2C(C(=O)[O-])=C(COC(C)=O)CSC12)c1csc(N)n1.[Na+] (configuration not stated) [Cefotaxime sodium],0.852,1.28,0.938,1.16
CC(CNC(=O)c1cccnc1)NC(=O)c1cccnc1 (configuration not stated) [Nicaraven],1.06,0.77,0.924,0.619
CN(CCOc1ccc(CC2SC(=O)NC2=O)cc1)c1ccccn1 (configuration not stated) [Rosiglitazone],0.583,0.763,0.549,0.773
COc1ccc(C2C(=O)c3ccccc3C2=O)cc1 [Anisindione],0.9,0.658,0.96,0.673
COc1ccc(NC(=O)c2ccc(C(=N)N(C)C)cc2)c(C(=O)Nc2ccc(Cl)cn2)c1 [Betrixaban],0.949,0.717,1.11,0.729
COc1cc(OC)c2ccc(=O)oc2c1 [Citropten],2.05,3.84,1.97,10.8
CC1CCC2C(C)C(OC(=O)CCC(=O)O)OC3OC4(C)CCC1C32OO4 (configuration not stated) [Artesunate],0.823,1.32,0.444,2.15
CC1(C)SC2C(NC(=O)C(N)c3ccc(O)cc3)C(=O)N2C1C(=O)[O-].[Na+] (configuration not stated) [Amoxicillin Sodium],0.909,0.93,0.953,0.801
CCCCCCCCOc1ccccc1C(=O)Nc1ccc(C(=O)OCC[N+](C)(CC)CC)cc1.[Br-] [Otilonium Bromide],0.62,0.834,0.564,0.871
O=C1OC(C(O)CO)C(O)=C1O (configuration not stated) [Vitamin C],0.53,0.658,0.762,0.618
Cl.NCCC[C@H](N)C(=O)O [L-Ornithine],0.893,0.876,0.138,0.323
Cl.N=C(N)NCCC[C@H](N)C(=O)O [L-Arginine HCl (L-Arg)],0.877,1.35,0.757,0.876
Cc1ccc(S(=O)(=O)NC(=O)NN2CC3CCCC3C2)cc1 (configuration not stated) [Gliclazide],0.773,0.841,0.821,0.863
CCN(CC)C(=O)N1CCN(C)CC1.O=C(O)CC(O)(CC(=O)O)C(=O)O [Diethylcarbamazine citrate],0.896,0.93,0.861,0.819
CC1CCC2C(C)C(O)OC3OC4(C)CCC1C32OO4 (configuration not stated) [Dihydroartemisinin (DHA)],0.93,1.48,0.645,2.87
COc1cc(N)c(Cl)cc1C(=O)NC1CCN(CCCOc2ccc(F)cc2)CC1OC.O (configuration not stated) [Cisapride hydrate],0.851,0.849,0.81,0.587
CC1=NN(c2ccccc2)C(=O)C1 [Edaravone],0.706,1.06,0.458,0.441
OCC1OC(Oc2ccc(O)cc2)C(O)C(O)C1O (configuration not stated) [Arbutin],0.92,1,0.93,0.995
Cc1cnc(C(=O)O)c[n+]1[O-] [Acipimox],0.738,1.16,0.55,0.584
CCOc1ccccc1OC(c1ccccc1)C1CNCCO1.CS(=O)(=O)O (configuration not stated) [Reboxetine mesylate],0.707,1.09,0.93,1.18
CC(=O)Nc1c(I)c(NC(C)=O)c(I)c(C(=O)[O-])c1I.[Na+] [Diatrizoate sodium],0.827,0.536,0.732,0.485
